{
  "source": "paper PMC9911399",
  "about": "“Two distinct binding modes provide the RNA-binding protein RbFox with extraordinary sequence specificity”",
  "binders": {"B1": {"name": "CUCUAAG (DNA:RNA)", "RNA": "GGGAGACCGGAAUUCAGAUUGUCCCUCUAAGUUAAAUCCCGUCGUAGCCACCA", "DNA 1": "CAATCTGAATTCCGGTCTCCC", "DNA 2": "TGGTGGCTACGACGGGATT"}, "B2": {"name": "UCAGGUC (DNA:RNA)", "RNA": "GGGAGACCGGAAUUCAGAUUGUCCUCAGGUCUUAAAUCCCGUCGUAGCCACCA", "DNA 1": "CAATCTGAATTCCGGTCTCCC", "DNA 2": "TGGTGGCTACGACGGGATT"}, "B3": {"name": "UGUACUU (DNA:RNA)", "RNA": "B2 RNA with C26G, A27U, G28A, G29C, C31U", "DNA 1": "CAATCTGAATTCCGGTCTCCC", "DNA 2": "TGGTGGCTACGACGGGATT"}, "B4": {"name": "CUCCAUC (DNA:RNA)", "RNA": "B1 RNA with U28C, A30U, G31C", "DNA 1": "CAATCTGAATTCCGGTCTCCC", "DNA 2": "TGGTGGCTACGACGGGATT"}, "B5": {"name": "UUCAUGG (DNA:RNA)", "RNA": "B1 RNA with C25U, U28A, A29U, A30G", "DNA 1": "CAATCTGAATTCCGGTCTCCC", "DNA 2": "TGGTGGCTACGACGGGATT"}, "B6": {"name": "UUUCCGC (DNA:RNA)", "RNA": "B2 RNA with C26U, A27U, G28C, G29C, U30G", "DNA 1": "CAATCTGAATTCCGGTCTCCC", "DNA 2": "TGGTGGCTACGACGGGATT"}, "B7": {"name": "AACCUUC (DNA:RNA)", "RNA": "B2 RNA with U25A, C26A, A27C, G28C, G29U", "DNA 1": "CAATCTGAATTCCGGTCTCCC", "DNA 2": "TGGTGGCTACGACGGGATT"}, "B8": {"name": "ACUCGAG (DNA:RNA)", "RNA": "B1 RNA with C25A, U26C, C27U, U28C, A29G", "DNA 1": "CAATCTGAATTCCGGTCTCCC", "DNA 2": "TGGTGGCTACGACGGGATT"}, "B9": {"name": "UCAUCAG (DNA:RNA)", "RNA": "B1 RNA with C25U, U26C, C27A, A29C", "DNA 1": "CAATCTGAATTCCGGTCTCCC", "DNA 2": "TGGTGGCTACGACGGGATT"}, "B10": {"name": "UGGCGGC (DNA:RNA)", "RNA": "B2 RNA with C26G, A27G, G28C, U30G", "DNA 1": "CAATCTGAATTCCGGTCTCCC", "DNA 2": "TGGTGGCTACGACGGGATT"}, "B11": {"name": "CGCCCCA (DNA:RNA)", "RNA": "B1 RNA with U26G, U28C, A29C, A30C, G31A", "DNA 1": "CAATCTGAATTCCGGTCTCCC", "DNA 2": "TGGTGGCTACGACGGGATT"}, "B12": {"name": "CCAUACU (DNA:RNA)", "RNA": "B1 RNA with U26C, C27A, A30C, G31U", "DNA 1": "CAATCTGAATTCCGGTCTCCC", "DNA 2": "TGGTGGCTACGACGGGATT"}, "B13": {"name": "GCCCCAA (DNA:RNA)", "RNA": "B1 RNA with C25G, U26C, U28C, A29C, G31A", "DNA 1": "CAATCTGAATTCCGGTCTCCC", "DNA 2": "TGGTGGCTACGACGGGATT"}, "B14": {"name": "AAGGUGA (DNA:RNA)", "RNA": "B2 RNA with U25A, C26A, A27G, G29U, U30G, C31A", "DNA 1": "CAATCTGAATTCCGGTCTCCC", "DNA 2": "TGGTGGCTACGACGGGATT"}, "B15": {"name": "CGGGGUA (DNA:RNA)", "RNA": "B2 RNA with U25C, C26G, A27G, C31A", "DNA 1": "CAATCTGAATTCCGGTCTCCC", "DNA 2": "TGGTGGCTACGACGGGATT"}, "B16": {"name": "AGUCCUU (DNA:RNA)", "RNA": "B2 RNA with U25A, C26G, A27U, G28C, G29C, C31U", "DNA 1": "CAATCTGAATTCCGGTCTCCC", "DNA 2": "TGGTGGCTACGACGGGATT"}, "B17": {"name": "CAUACUU (DNA:RNA)", "RNA": "B1 RNA with U26A, C27U, U28A, A29C, A30U, G31U", "DNA 1": "CAATCTGAATTCCGGTCTCCC", "DNA 2": "TGGTGGCTACGACGGGATT"}, "B18": {"name": "UAGUAGA (DNA:RNA)", "RNA": "B1 RNA with C25U, U26A, C27G, A30G, G31A", "DNA 1": "CAATCTGAATTCCGGTCTCCC", "DNA 2": "TGGTGGCTACGACGGGATT"}, "B19": {"name": "UUAACAC (DNA:RNA)", "RNA": "B2 RNA with C26U, G28A, G29C, U30A", "DNA 1": "CAATCTGAATTCCGGTCTCCC", "DNA 2": "TGGTGGCTACGACGGGATT"}, "B20": {"name": "CGCUUGA (DNA:RNA)", "RNA": "B1 RNA with U26G, A29U, A30G, G31A", "DNA 1": "CAATCTGAATTCCGGTCTCCC", "DNA 2": "TGGTGGCTACGACGGGATT"}, "B21": {"name": "GCCCUGG (DNA:RNA)", "RNA": "B1 RNA with C25G, U26C, U28C, A29U, A30G", "DNA 1": "CAATCTGAATTCCGGTCTCCC", "DNA 2": "TGGTGGCTACGACGGGATT"}, "B22": {"name": "CAGGAAC (DNA:RNA)", "RNA": "B1 RNA with U26A, C27G, U28G, G31C", "DNA 1": "CAATCTGAATTCCGGTCTCCC", "DNA 2": "TGGTGGCTACGACGGGATT"}, "B23": {"name": "CUAUGUA (DNA:RNA)", "RNA": "B1 RNA with C27A, A29G, A30U, G31A", "DNA 1": "CAATCTGAATTCCGGTCTCCC", "DNA 2": "TGGTGGCTACGACGGGATT"}, "B24": {"name": "UAAGUUC (DNA:RNA)", "RNA": "B2 RNA with C26A, G29U", "DNA 1": "CAATCTGAATTCCGGTCTCCC", "DNA 2": "TGGTGGCTACGACGGGATT"}, "B25": {"name": "UCGCCAC (DNA:RNA)", "RNA": "B2 RNA with A27G, G28C, G29C, U30A", "DNA 1": "CAATCTGAATTCCGGTCTCCC", "DNA 2": "TGGTGGCTACGACGGGATT"}, "B26": {"name": "ACUUGUG (DNA:RNA)", "RNA": "B2 RNA with U25A, A27U, G28U, C31G", "DNA 1": "CAATCTGAATTCCGGTCTCCC", "DNA 2": "TGGTGGCTACGACGGGATT"}, "B27": {"name": "UCAGCUC (DNA:RNA)", "RNA": "B2 RNA with G29C", "DNA 1": "CAATCTGAATTCCGGTCTCCC", "DNA 2": "TGGTGGCTACGACGGGATT"}, "B28": {"name": "GGGGCUA (DNA:RNA)", "RNA": "B2 RNA with U25G, C26G, A27G, G29C, C31A", "DNA 1": "CAATCTGAATTCCGGTCTCCC", "DNA 2": "TGGTGGCTACGACGGGATT"}, "B29": {"name": "CUUGGUU (DNA:RNA)", "RNA": "B2 RNA with U25C, C26U, A27U, C31U", "DNA 1": "CAATCTGAATTCCGGTCTCCC", "DNA 2": "TGGTGGCTACGACGGGATT"}, "B30": {"name": "GAGCCGU (DNA:RNA)", "RNA": "GGGAGACCGGAAUUCAGAUUGUCCGAGCCGUUUAAAUCCCGUCGUAGCCACCA", "DNA 1": "CAATCTGAATTCCGGTCTCCC", "DNA 2": "TGGTGGCTACGACGGGATT"}, "B31": {"name": "AUGAUGC (DNA:RNA)", "RNA": "B30 RNA with G25A, A26U, C28A, C29U, U31C", "DNA 1": "CAATCTGAATTCCGGTCTCCC", "DNA 2": "TGGTGGCTACGACGGGATT"}},
  "note": "Positions count from the first letter of the chain named. Some of the results follow.",
  "data": [
    {"molecular_target": "T1, RBFOX1 RRM RbFoxmut (Fox-RRM*) (Homo sapiens, UniProt Q9NWB1 109-208, R118D;E147R;N151S;E152T)", "T1 sequence": "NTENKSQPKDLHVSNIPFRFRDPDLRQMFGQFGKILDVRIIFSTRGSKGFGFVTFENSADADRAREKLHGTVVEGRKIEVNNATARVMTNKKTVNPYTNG", "test": "EMSA; HiTS-Eq, 1 nM pool, 10 min; buffer printed only for the single-RNA assays: 10 mM Tris pH 7.5, 150 mM NaCl, 3.4 mM EDTA, 0.001% NP-40, 30 C", "conditions": "tags: His6 N-terminal (pET28a); label: 5' 32P", "outline": "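Purified wild-type or mutant RbFox RRM at increasing concentrations was equilibrated with 1 nM of 5′-radiolabelled RNA carrying 7 randomized nucleotides for 10 min in 50 µL. Unbound RNA was separated by 8% native PAGE and sequenced. Relative association constants came from read-count changes of each RNA species compared with the control reaction, normalised to the cognate motif.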", "values": [
      {"binder": "B1", "binding signal": "0.123 KA relative to UGCAUGU"},
      {"binder": "B2", "binding signal": "0.116 KA relative to UGCAUGU"},
      {"binder": "B3", "binding signal": "0.0859 KA relative to UGCAUGU"},
      {"binder": "B4", "binding signal": "0.0909 KA relative to UGCAUGU"},
      {"binder": "B5", "binding signal": "0.098 KA relative to UGCAUGU"},
      {"binder": "B6", "binding signal": "0.108 KA relative to UGCAUGU"},
      {"binder": "B7", "binding signal": "0.0273 KA relative to UGCAUGU"},
      {"binder": "B8", "binding signal": "0.132 KA relative to UGCAUGU"},
      {"binder": "B9", "binding signal": "0.0892 KA relative to UGCAUGU"},
      {"binder": "B10", "binding signal": "0.0959 KA relative to UGCAUGU"},
      {"binder": "B11", "binding signal": "0.0612 KA relative to UGCAUGU"},
      {"binder": "B12", "binding signal": "0.0898 KA relative to UGCAUGU"},
      {"binder": "B13", "binding signal": "0.0964 KA relative to UGCAUGU"},
      {"binder": "B14", "binding signal": "0.0987 KA relative to UGCAUGU"},
      {"binder": "B15", "binding signal": "0.156 KA relative to UGCAUGU"},
      {"binder": "B16", "binding signal": "0.0798 KA relative to UGCAUGU"},
      {"binder": "B17", "binding signal": "0.129 KA relative to UGCAUGU"},
      {"binder": "B18", "binding signal": "0.119 KA relative to UGCAUGU"},
      {"binder": "B19", "binding signal": "0.0924 KA relative to UGCAUGU"},
      {"binder": "B20", "binding signal": "0.196 KA relative to UGCAUGU"},
      {"binder": "B21", "binding signal": "0.0853 KA relative to UGCAUGU"},
      {"binder": "B22", "binding signal": "0.0847 KA relative to UGCAUGU"},
      {"binder": "B23", "binding signal": "0.198 KA relative to UGCAUGU"},
      {"binder": "B24", "binding signal": "0.0634 KA relative to UGCAUGU"},
      {"binder": "B25", "binding signal": "0.121 KA relative to UGCAUGU"},
      {"binder": "B26", "binding signal": "0.168 KA relative to UGCAUGU"},
      {"binder": "B27", "binding signal": "0.0683 KA relative to UGCAUGU"},
      {"binder": "B28", "binding signal": "0.132 KA relative to UGCAUGU"},
      {"binder": "B29", "binding signal": "0.0961 KA relative to UGCAUGU"},
      {"binder": "B30", "binding signal": "0.0954 KA relative to UGCAUGU"},
      {"binder": "B31", "binding signal": "0.149 KA relative to UGCAUGU"}
    ]}
  ]
}
